Data: patent publication US20250304700A1, “ANTI-BLOOD DENDRITIC CELL ANTIGEN 2 ANTIBODIES AND USES THEREOF” (Biogen MA Inc., priority 2012, published 2025)
Numbering of substitutions follows the chain as printed. Names and notes keep the numbering of the source.

B1: C95S variant: ch24F4 light chain CDRL3 variant C95S (antibody)
heavy: DVKLVESGGGLVKPGGSLKLSCAASGFTFSTYTMSWVRQTPEKRLEWVATISPGDSFGYYYPDSVQGRFTISRDNAKNTLFLQMSSLKSEDTAMYYCTRDIYYNYGAWFAYWGQGTLVTVSA[human IgG1 constant region not written out]
light: DIVLTQSPASLAVSLGQRATISCKASQSVDYDGDSYMNWYQQKPGQPPKLLIYAASTLESGVPARFSGSGSGTDFTLNIHPVEEEDAATYYCQQSNEDPRTFGGGTKLEIKRTVAAPSVFIFPPSDEQLKSGTASVVCLLNNFYPREAKVQWKVDNALQSGNSQESVTEQDSKDSTYSLSSTLTLSKADYEKHKVYACEVTHQGLSSPVTKSFNRGEC
B2: C95T variant: ch24F4 light chain CDRL3 variant C95T (antibody)
heavy: B1 heavy
light: B1 light with S95T
B3: ch24F4: murine-human chimera, mu24F4 variable regions linked to human IgG1 and kappa constant regions (antibody)
heavy: B1 heavy
light: B1 light with S95C

Key:
surface human BDCA2 = molecular target: T1, surface human BDCA2 (Homo sapiens, UniProt Q8WTT0); test: Direct binding dilution titration FACS on surface human BDCA2; settings: surface expressed human BDCA2
T1 construct: stably transfected DG44 CHO cells co-expressing full-length BDCA2 and FcεRIγcDNAs (human or cynomolgus monkey); expressed in transfected cells
T1 sequence (Q8WTT0 1-213): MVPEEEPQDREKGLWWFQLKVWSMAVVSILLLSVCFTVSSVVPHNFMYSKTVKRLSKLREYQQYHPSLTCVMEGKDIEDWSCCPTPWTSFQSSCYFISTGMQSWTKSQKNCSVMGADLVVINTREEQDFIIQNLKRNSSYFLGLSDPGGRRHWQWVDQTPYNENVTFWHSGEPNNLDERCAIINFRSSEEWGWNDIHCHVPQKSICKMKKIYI
T1 sequence (P30273 19-86 partner): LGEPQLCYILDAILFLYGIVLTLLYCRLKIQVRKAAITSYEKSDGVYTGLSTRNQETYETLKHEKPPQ
Method: Expression vectors (ch24F4 heavy chain vectors pYL670 or pYL672 and ch24F4 light chain vector pYL671) were co-transfected into 293-EBNA cells and transfected cells were tested for antibody secretion and specificity (empty vector- and a molecularly cloned irrelevant mAb vector-transfected cells served as controls). […] Direct FACS binding to surface human BDCA2 confirmed the specificity of ch24F4. The EC50 binding of both variants of ch24F4 was equivalent to that of the murine 24F4 mAb by direct binding to surface expressed human BDCA2 by dilution titration FACS assay. Stable CHO cell lines secreting ch24F4-huIgG1, kappa mAb and agly ch24F4-huIgG4/G1 hybrid kappa mAb were produced by co-transfection with pYL672/pYL671 and pYL670/pYL671, respectively.
Site-directed mutagenesis was performed using Agilent's QuikChange II mutagenesis kit following the manufacturer's recommended protocol. The C95S variant was constructed using the mutagenic primer 5′ GCAACCTATTACTGTCAACAAAGTAATGAGGATCCTCGGAC 3′ (SEQ ID NO: 38) and its reverse complement, which introduced a new HincII site, producing plasmid pEAG2678. The C95T variant was constructed using the mutagenic primer 5′ CAACCTATTACTGTCAGCAAACTAATGAAGATCCTCGGACGTTCG 3′ (SEQ ID NO: 39) and its reverse complement, which removed a BamHI site, producing plasmid pEAG2679. […]

human BDCA2 ectodomain = molecular target: T2, human BDCA2 ectodomain (Homo sapiens, UniProt Q8WTT0); test: Octet binding of mAbs on anti-human Fc tips to monomeric huBDCA2; settings: for Octet binding and dissociation kinetics, in words: conditioned medium
T2 construct: huBDCA2 ectodomain: residues 257-425 above (underlined); murine IgG2a Fc (with G4S linker) (N, cleaved yes); made in house
T2 sequence (Q8WTT0 45-213): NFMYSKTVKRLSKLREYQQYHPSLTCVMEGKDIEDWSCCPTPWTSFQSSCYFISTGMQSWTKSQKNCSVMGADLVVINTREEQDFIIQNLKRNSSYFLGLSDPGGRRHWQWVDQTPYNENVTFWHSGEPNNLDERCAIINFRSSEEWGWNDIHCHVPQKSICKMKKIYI
Method: Site-directed mutagenesis was performed using Agilent's QuikChange II mutagenesis kit following the manufacturer's recommended protocol. The C95S variant was constructed using the mutagenic primer 5′ GCAACCTATTACTGTCAACAAAGTAATGAGGATCCTCGGAC 3′ (SEQ ID NO: 38) and its reverse complement, which introduced a new HincII site, producing plasmid pEAG2678. The C95T variant was constructed using the mutagenic primer 5′ CAACCTATTACTGTCAGCAAACTAATGAAGATCCTCGGACGTTCG 3′ (SEQ ID NO: 39) and its reverse complement, which removed a BamHI site, producing plasmid pEAG2679. Mutated plasmids were identified by screening for the introduced restriction site changes. The full-length light chain cDNA sequences in the resultant plasmids were confirmed by DNA sequencing. Wildtype ch24F4 and the C95S and C95T variant mAbs were expressed transiently in 293E cells by co-transfection of pYL672 and pYL671, pEAG2678 or pEAG2679. Conditioned medium was harvested at 2 days post-transfection. Titers (assayed by Octet on anti-human Fc tips) of both variants were similar to that of wildtype ch24F4, and Western blots of nonreducing SDS-PAGE indicated no gross aggregation or obvious clipping relative to wildtype ch24F4 mAb. […] Conditioned medium containing ch24F4 and the C95 variant mAbs was assayed by Octet for binding to human BDCA2 ectodomain. Antibodies from conditioned medium from transiently transfected cells were bound to anti-human Fc tips, then monomeric huBDCA2 was flowed over the Octet tips, to examine binding and dissociation.
Conditioned medium containing ch24F4 and all hu24F4 variant mAbs was assayed by Octet for binding to human BDCA2 ectodomain. The monomeric huBDCA2 ectodomain was prepared by proteolytic cleavage from the purified muIgG2a Fc-huBDCA2 fusion protein (relevant plasmid: pEAG2423). Antibodies from conditioned medium from transiently transfected cells were bound to anti-human Fc tips, and then monomeric huBDCA2 was flowed over the Octet tips, to examine binding and dissociation.
To explore the possibility of enhancing hu24F4 affinity by substitution at the position of the 24F4 version L1 CDR L3 unpaired cysteine (C95S in hu24F4 light chain expression vector pYL740), a number of version L1 variants were constructed by site-directed mutagenesis. Backmutation to the unpaired cysteine, i.e., S95C, was constructed by site-directed mutagenesis producing plasmid pYL749. Variants S95T, S95A, and S95V were constructed by site-directed mutagenesis producing plasmids pYL750, pYL751, and pYL752, respectively. The full-length light chain cDNA sequences in the resultant plasmids were confirmed by DNA sequencing. […]

[1] = Example 5, conditioned medium, hu24F4 variants

Molecule	apparent EC50 of direct binding by FACS, in words (surface human BDCA2)	Octet binding and dissociation kinetics, in words (human BDCA2 ectodomain)	kdis (human BDCA2 ectodomain; [1]) [s⁻¹]	kon (human BDCA2 ectodomain; [1]) [M⁻¹ s⁻¹]
B1	equivalent to that of wildtype ch24F4	equivalent		
B2	reduced by several-fold	faster than that of wildtype ch24F4		
B3			0.00349	1.61e+06
